Laboratory results from PubChem BioAssay AID488969 (Vanderbilt High Throughput Screening Facility, 2010).
Whole data set: some 110,000 compounds, median “z-score” near -0.1, cut for the highest 2% near 2. Some of the results follow. Calls of active or inactive are those of the source.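 How the source made its calls: active means z-score in the third read window above 3 or below -3; inactive means the rest.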

Target: Metabotropic glutamate receptor 8 (Rattus norvegicus) (UniProt P70579)
Experiment: mGluR8 Gi/Go-coupled signaling modulation – cell-based, rat, thallium flux, HTS, primary screen (AID 488969)
Details: HEK293 rat mGluR8, GIRK (G protein-gated inwardly rectifying potassium channel) thallium flux, FluoZin2; at 10 µM; stronger effect = higher value; submaximal glutamate (EC20) added with thallium

Chain of UniProt P70579 (P70579 whole entry, looked up): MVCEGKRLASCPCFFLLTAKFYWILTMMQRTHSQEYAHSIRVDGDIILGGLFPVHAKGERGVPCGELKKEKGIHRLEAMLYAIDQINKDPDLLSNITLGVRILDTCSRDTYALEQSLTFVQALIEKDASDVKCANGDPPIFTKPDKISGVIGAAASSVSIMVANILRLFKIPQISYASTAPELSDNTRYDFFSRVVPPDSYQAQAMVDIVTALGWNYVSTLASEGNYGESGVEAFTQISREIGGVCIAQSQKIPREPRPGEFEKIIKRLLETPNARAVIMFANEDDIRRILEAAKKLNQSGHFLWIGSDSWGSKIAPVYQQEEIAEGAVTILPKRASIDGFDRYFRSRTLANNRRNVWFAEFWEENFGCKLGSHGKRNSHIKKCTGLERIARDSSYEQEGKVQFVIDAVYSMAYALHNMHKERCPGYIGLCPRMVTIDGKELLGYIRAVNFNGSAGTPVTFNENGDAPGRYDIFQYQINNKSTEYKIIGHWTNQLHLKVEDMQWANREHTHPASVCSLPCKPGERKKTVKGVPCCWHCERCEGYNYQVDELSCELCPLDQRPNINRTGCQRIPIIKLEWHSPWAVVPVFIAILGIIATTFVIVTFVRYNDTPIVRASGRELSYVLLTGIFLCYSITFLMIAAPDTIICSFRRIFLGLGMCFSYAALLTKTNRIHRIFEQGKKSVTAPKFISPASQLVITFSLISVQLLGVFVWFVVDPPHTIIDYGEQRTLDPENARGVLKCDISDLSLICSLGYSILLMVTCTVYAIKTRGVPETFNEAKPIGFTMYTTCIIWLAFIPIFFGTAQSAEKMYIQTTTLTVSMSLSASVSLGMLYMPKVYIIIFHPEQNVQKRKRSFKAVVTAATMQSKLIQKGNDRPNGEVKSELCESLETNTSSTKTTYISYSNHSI

| Compound | z-score |
| --- | --- |
| Cc1c(Br)c([N+](=O)[O-])nn1CCCC(=O)N1CCN(c2ccccc2)CC1 | 0.334 |
| CCCCC(=O)Nc1ccc(NC(=O)c2cc(OC)c(OC)c(OC)c2)cn1 | -0.00813 |
| CC1=NN(C(=O)c2ccc(Cn3nc(C)cc3C)o2)C(O)(C(F)(F)F)C1 (stereo not given) | -0.123 |
| CC1CCCCC1NC(=O)c1ccc(S(=O)(=O)N2CCCC2)cc1 (stereo not given) | -0.425 |
| C=C(C)c1ccc(C(C)(C)NC(=O)N(Cc2ccccc2)Cc2ccco2)cc1 | -0.294 |
| O=C(CSc1nnnn1C1CCCCC1)NCc1ccccc1 | -0.0244 |
| Cc1ccc(-n2c(C)cc(-c3csc(N)n3)c2C)cc1 | -0.561 |
| CCOc1cccc2cc(C(=O)N3CCc4ccccc4C3)c(=O)oc12 | -0.741 |
| COCCCNC(=O)CCCC(=O)NCCCOC | 0.812 |
| C=CCNCCOCCOc1ccc(C)cc1Br | 0.527 |
| CC(C)N(C(=O)C1CC(=O)OC12CCCCC2)C(C)C (stereo not given) | -0.192 |
| Cc1ccc2cccc(Oc3ncnc4scc(-c5ccccc5)c34)c2n1 | -1.42 |
| Cc1cc(/C=C2\SC(=Nc3ccc(N4CCOCC4)cc3)N(C)C2=O)c(C)n1-c1cccnc1 | 0.202 |
| CCCCN(C)C(=O)CCC(=O)Nc1ccc2nc(N3CCOCC3)cc(C)c2c1 | -0.895 |
| CCn1c(=O)c2c(n3cnnc13)-c1ccccc1CC21CCCCC1 | -1.61 |
| O=C(O)c1cccc(-c2ccc(/C=N/NC(=O)c3cccnc3)o2)c1 | -0.216 |
| O=C1CC(C(=O)N(CC2CCCO2)C(C(=O)NC2CCCCC2)c2ccncc2)CS1 (stereo not given) | -0.648 |
| O=[N+]([O-])c1cc(/C=N/Nc2nc(N3CCOCC3)nc(N3CCOCC3)n2)ccc1Cl | -0.222 |
| O=C(/C=C/c1cccc([N+](=O)[O-])c1)Nc1cccc(NC(=O)c2ccco2)c1 | 0.186 |
| CC1=C(C)CC(C(=O)NCc2ccc3c(c2)OCO3)C(C(=O)O)C1 (stereo not given) | -0.335 |
| COc1ccccc1S(=O)Cc1ccc(C(=O)NCCc2ccc(Cl)cc2)o1 (stereo not given) | -0.45 |
| C/C(=C\c1ccccc1)C(=O)NC1CCSC1=O (stereo not given) | 0.028 |

| Compound | z-score |
| --- | --- |
| COc1ccc(C2=NOC(C(=O)NCCCN3CCOCC3)C2)cc1 (stereo not given) | 0.000804 |
| CCOC(=O)c1c(-c2ccccc2)cn2ccccc12 | -0.328 |
| COC(=O)c1[nH]c2cc(OC)ccc2c1NC(=O)CN1CCOCC1 | -0.504 |
| CC(C)n1c(=O)c2c(O)cc(=O)oc2c2ccccc21 | -0.109 |
| Cc1ccc(S(=O)(=O)N2CCN(C3CCC(c4ccccc4)CC3)CC2)cc1 (stereo not given) | -0.275 |
| CCc1ccc(-n2c(SCc3c(C)noc3C)nnc2-c2ccncc2)cc1 | 0.0471 |
| CCC(NC(=O)c1ccc([N+](=O)[O-])cc1[N+](=O)[O-])c1ccccc1 (stereo not given) | -0.136 |
| COc1cc(Br)cc(/C=N/c2ncn[nH]2)c1O | -2.37 |
| O=C(CCC(=O)N1CCN(C2CCCCC2)CC1)Nc1nnc(C(F)(F)F)s1 | -0.445 |
| CN1C(=O)c2ccc(C(=O)NC3CCCCC3)cc2C1=O | 0.22 |
| C/C(=N\NC(=O)C(NC(=O)c1ccccc1)C(C)C)c1ccccc1 (stereo not given) | -0.068 |
| COC(=O)[C@H](CCSC)NC(=O)NCCc1ccccc1F | -0.394 |
| O=C(NCC1OCCc2ccccc21)c1ccc(NC(=O)c2ccc(Cl)cc2Cl)cc1 (stereo not given) | -0.186 |
| O=C(CCc1ccccc1)N1CCN(CCO)CC1 | 0.156 |
| Cc1ccc(-n2nnnc2SCC(=O)Nc2ccccc2-c2ccccc2)cc1C | -0.158 |
| Cc1c(NC(=O)C(=O)/C=C(/O)c2ccccc2)c(=O)n(-c2ccccc2)n1C | -0.309 |
| COc1ccc2nc(C)cc(SCC(=O)N/N=C/c3c(OC)ccc4ccccc34)c2c1 | -1.47 |
| Cn1c(Cn2c(=O)sc3ccccc32)nnc1SCc1cccnc1 | -0.132 |
| N#Cc1ccc(-c2ccc(F)cc2)nc1Oc1ccccc1 | 0.187 |
| Cc1cccc(-n2nnc3cnn(C)c3c2=O)c1 | 0.893 |
| O=C1c2ccccc2C(=O)N1CC(O)Cn1nnc2ccccc21 (stereo not given) | 0.463 |
| Cc1ccc(O)c(-c2cc(-c3ccccc3F)[nH]n2)c1 | -0.351 |

| Compound | z-score |
| --- | --- |
| Cc1nn(-c2ccccc2)c2c1C(c1ccc(O)c(O)c1)N1C(=N2)C(Nc2ccccc2)=Nc2ccccc21 (stereo not given) | -0.165 |
| COc1ccccc1NC(=O)CN1CCN(CC(=O)Nc2ccc(Cl)c(C(F)(F)F)c2)CC1 | 0.46 |
| CCCCn1c(SCC(=O)N2CCCc3ccccc32)nc2c1c(=O)n(C)c(=O)n2C | -0.268 |
| COC(=O)c1ccc(S(=O)(=O)c2ccccc2)c(N)c1 | -0.0905 |
| Cc1c(Cl)cccc1NC(=O)CN1CCN(CCO)CC1 | 0.396 |
| N=c1ncn(Cc2ccccc2)c2nc(SCCOc3ccccc3)[nH]c12 | -0.517 |
| c1cn2cc(CN3CCOCC3)nc2s1 | -0.0735 |
| Cc1nn(Cc2cccc(F)c2)c(C)c1NC(=O)c1ccc(COc2ccccc2Cl)cc1 | -0.189 |
| CCN1C(=O)C2(C(C#N)=C(N)Oc3n[nH]c(-c4ccc(Cl)cc4)c32)c2ccccc21 (stereo not given) | 0.0293 |
| CS(=O)(=O)N(CC(=O)N1CCCC1)c1cc(Cl)c(Cl)cc1Cl | 0.418 |
| COC(=O)c1ccc(NC(=S)NC2CCCCC2)cc1 | 0.1 |
| CC1(C)CC(CC(=O)Nc2ccccn2)C(=O)O1 (stereo not given) | -0.186 |
| CCCCC(CCC(=O)Nc1ccccc1C(=O)OCC)C(=O)O (stereo not given) | -0.127 |
| CCN(CC)CCn1c(-c2ccccc2)nc(=S)c2c1CC(C)(C)OC2 | -0.104 |
| CCNC(=O)Nn1c(C)nnc1C | 0.0579 |
| CCN1CCN(C(=O)c2ccc(CN(c3ccccc3)S(=O)(=O)c3ccccc3)cc2)CC1 | -1.46 |
| OCCN(Cc1ccccc1)CC1CC2C=CC1C2 (stereo not given) | 0.0197 |
| Cc1nc2ccccc2cc1OCc1ccc(Cl)cc1 | 0.163 |
| O=C(N/N=C/c1ccncc1)c1cccc([N+](=O)[O-])c1 | 0.0455 |
| CCOC(=O)c1ccc(NC(=O)COc2ccc(S(=O)(=O)NC(C)(C)C)cc2)cc1 | 0.249 |
| CCCc1cc(C(=O)Nc2ccc(F)cc2F)no1 | -0.353 |
| CC(=O)Nc1ccccc1C(=O)C(=O)Nc1cccc(F)c1 | 0.0276 |

| Compound | z-score |
| --- | --- |
| COC(=O)c1ccc(NC(=O)CCN2CCN(CCC(=O)Nc3ccc(C(=O)OC)cc3)CC2)cc1 | 0.0996 |
| COc1cc2c(cc1NC(=S)NC(=O)/C=C/c1ccco1)oc1ccccc12 | 0.0976 |
| Clc1ccccc1C1=Nn2c(nnc2-c2ccncc2)SC1 | 0.344 |
| COc1ccc(N(CC(=O)NCC2CCCO2)C(=O)CCC(=O)Nc2nccs2)cc1 (stereo not given) | 0.126 |
| CC(=O)c1ccc(N2CCN(C(=O)c3cc4c(-c5ccccc5F)nn(C)c4s3)CC2)cc1 | -0.418 |
| O=C1NCCCN1Cc1ccc(F)cc1Cl | 0.214 |
| O=C(c1cc2nc(-c3ccccc3)cc(-c3ccccc3)n2n1)N1CCN(C(=O)c2ccco2)CC1 | active: -3.33 |
| c1ccc(CNc2nc3ccccc3[nH]2)cc1 | 0.236 |
| CC(NC(=O)c1ccccc1NC(=O)CSc1nnnn1C)c1ccccc1 (stereo not given) | 2.05 |
| O=C1CCCC2=C1C(c1ccncc1)c1c(nc(SCc3ccccc3Cl)[nH]c1=O)N2 (stereo not given) | -1.24 |
| O=C(NCCc1cccs1)C1CC(c2ccccc2[N+](=O)[O-])=NO1 (stereo not given) | -0.176 |
| Cc1ccc(S(=O)(=O)/N=c2\sccn2C)cc1 | 0.164 |
| CSc1ccc(OC2CCCCC2NS(=O)(=O)c2ccc(Cl)cc2)cc1 (stereo not given) | 0.803 |
| O=C(CSc1cn(Cc2ccccc2)c2ccccc12)Nc1nccs1 | -0.121 |
| COc1ccc(OC)c(CNC(=O)CCN2C(=O)COc3ccccc32)c1 | 0.307 |
| CN1CCN(CC(=O)C23CC4CC(CC(C4)C2)C3)CC1 | 0.435 |
| Cc1cccc(NC(=O)c2ccc(NCCc3ccccc3)c([N+](=O)[O-])c2)c1 | -0.0245 |
| Cc1ccc(CN(c2ccc(C(=O)N3CCCC3)cc2)S(C)(=O)=O)cc1 | -0.435 |
| CC1CC2(C)Oc3ccccc3C3OCC1(CO)C(C)C32 (stereo not given) | -0.294 |
| CC1(C2(O)CC(c3ccccc3)ON2)CCCCC1 (stereo not given) | -0.453 |
| CCC(C(=O)Nc1nnc(-c2ccco2)s1)c1ccccc1 (stereo not given) | -0.521 |
| COC(=O)C(C)C1Sc2ccccc2NC1=O (stereo not given) | -0.34 |

| Compound | z-score |
| --- | --- |
| COc1ccc(CCNc2oc(Cc3ccccc3)nc2C#N)cc1OC | -0.851 |
| Cc1nc2sc(C(c3cccc(F)c3)N3CCCCC3)c(O)n2n1 (stereo not given) | -0.207 |
| NC(=O)c1ccccc1N/C=C/C(=O)c1ccc(Cl)cc1 | 0.448 |
| Cc1ccc(C(=O)COC(=O)c2ccncc2)cc1[N+](=O)[O-] | -0.0626 |
| O=C(Cn1nnc(-c2ccccc2)n1)Nc1ccccc1N1CCOCC1 | 0.927 |
| COc1ccc(C)cc1NC(=O)C(Sc1nnc(-c2ccncc2)n1-c1ccc(Cl)cc1)c1ccccc1 (stereo not given) | -0.174 |
| Cc1cc(C)c(NC(=O)CS(=O)CC(=O)Nc2cccnc2)c(C)c1 (stereo not given) | -0.985 |
| O=C(Nc1cccc(-c2nc3ncccc3o2)c1)c1ccco1 | 0.204 |
| COCCN(Cc1ccccc1)C(=S)Nc1ccc(OC(F)F)cc1 | -0.227 |
| CCCCNC(=O)CSc1nc2ccc(NC(=O)CSc3nnc(COc4ccccc4C)n3C)cc2s1 | -0.146 |
| CN1CCN(c2ccc(S(=O)(=O)N3CCCCC3)cc2NC(=O)Cc2ccc(Cl)cc2)CC1 | -0.00259 |
| COc1ccc(CNC(=O)CN2C(=O)C3CCCN3c3ncc(Cl)cc32)cc1 (stereo not given) | -0.311 |
| Cc1cc(NC(=O)COC(=O)C2COc3ccccc3O2)no1 (stereo not given) | -0.0514 |
| O=C(OC1CCN(c2ncc(C(F)(F)F)cc2Cl)CC1)c1ccc(Cl)cc1 | -0.0974 |
| COc1ccc(C(=O)N/N=C/c2ccc(OC(=O)c3ccccc3)cc2)cc1 | -0.28 |
| O=C(COc1ccccc1)NNC(=O)c1cccs1 | -0.157 |
| CCC(=O)N1CCCc2cc(S(=O)(=O)N3CCN(c4ncccn4)CC3)ccc21 | 0.519 |
| Cc1ccc(S(=O)(=O)NCCCCCC(N)=O)cc1 | 0.00872 |
| CCOc1ccccc1NC(=O)C(OC(=O)c1ccccc1)c1ccccc1 (stereo not given) | -0.172 |
| COC(=O)C1=C(N)c2ccccc2C1(C#N)c1ccccc1 (stereo not given) | -0.443 |
| CCn1c2ccccc2n2c(=O)c(=O)n(CC(=O)Nc3ccc(C(C)C)cc3)nc12 | -0.181 |
| O=c1c(/C=C(\O)c2ccc(F)cc2)nc2ccccc2n1-c1ccccc1 | -0.472 |
